Measured values reported in a collection of fitness landscapes (doi:10.1126/science.1257360).
Some of the results follow.

B1: PhoQ; a variant is named by its letters at X, in order, P23837 (parent)
chain: MKKLLRLFFPLSLRVRFLLATAAVVLVLSLAYGMVALIGYSVSFDKTTFRLLRGESNLFYTLAKWENNKLHVELPENIDKQSPTMTLIYDENGQLLWAQRDVPWLMKMIQPDWLKSNGFHEIEADVNDTSLLLSGDHSIQQQLQEVREDDDDAEMTHSVAVNVYPATSRMPKLTIVVVDTIPVELKSSYMVWSWFIYVLSANLLLVIPLLWVAAWWSLRPIEALAKEVRELEEHNRELLNPATTRELTSLVRNLNRLLKSERERYDKYRTTLTDLTHSLKTPLXXLQXXLRSLRSEKMSVSDAEPVMLEQISRISQQIGYYLHRASMRGGTLLSRELHPVAPLLDNLTSALNKVYQRKGVNISLDISPEISFVGEQNDFVEVMGNVLDNACKYCLEFVEISARQTDEHLYIVVEDDGPGIPLSKREVIFDRGQRVDTLRPGQGVGLAVAREITEQYEGKIVAGESMLGGARMEVIFGRQHSAPKDE

Variants of: B1
Test: enrichment ratio after two sorts for PhoP signalling (ratio (wild type AVST 3.29)); higher = more functional
Settings: with PhoP (E. coli)

Point of comparison: AGCK, enrichment ratio 16.1. Against it:
- PMDQ — lower, ≤ 0.25
- EENF — lower, ≤ 0.25
- DYAL — lower, ≤ 0.25
- RVTQ — lower, ≤ 0.25
- TDGW — lower, ≤ 0.25
- KFTT — lower, ≤ 0.25
- VRYS — lower, ≤ 0.25
- GHCC — lower, ≤ 0.25
- GCPD — lower, ≤ 0.25
- TCHH — higher, 26.2
- ITYN — lower, ≤ 0.25
- WTLH — lower, ≤ 0.25
- VEMF — lower, ≤ 0.25
- RCIK — lower, ≤ 0.25
- TRQR — lower, ≤ 0.25
- PTLH — lower, ≤ 0.25
- AYIM — lower, ≤ 0.25
- FNRG — lower, ≤ 0.25
- WMWF — lower, ≤ 0.25
- ITAS — lower, ≤ 0.25
- MNIA — lower, ≤ 0.25
- YMDR — lower, ≤ 0.25
- TFGY — lower, ≤ 0.25
- HKPC — lower, ≤ 0.25
- SSSP — lower, ≤ 0.25
- KSVV — lower, ≤ 0.25
- LMFD — lower, ≤ 0.25
- MLWI — lower, ≤ 0.25
- ASGW — lower, ≤ 0.25
- NKCC — lower, ≤ 0.25
- VFIY — lower, ≤ 0.25
- TSCL — higher, 19.6
- DKYC — lower, ≤ 0.25
- RWGS — lower, ≤ 0.25
- SPMS — lower, ≤ 0.25
- HMRY — lower, ≤ 0.25
- AFKY — lower, ≤ 0.25
- MQQD — lower, ≤ 0.25
- PNAP — lower, ≤ 0.25
- KPPW — lower, ≤ 0.25
- VANQ — lower, ≤ 0.25
- ATNK — lower, ≤ 0.25
- ENGM — lower, ≤ 0.25
- QTQN — lower, ≤ 0.25
- YRQN — lower, ≤ 0.25
- QIWS — lower, ≤ 0.25
- YSHN — lower, ≤ 0.25
- ITVE — lower, ≤ 0.25
- STRQ — lower, ≤ 0.25
- WVHQ — lower, ≤ 0.25
- GWNF — lower, ≤ 0.25
- ERGV — lower, ≤ 0.25
- YKQE — lower, ≤ 0.25
- QIIW — lower, ≤ 0.25
- FVSA — lower, ≤ 0.25
- YEIG — lower, 4.09
- TRSI — lower, 2.03
- GTFS — lower, ≤ 0.25
- GATK — lower, ≤ 0.25
- LPGL — lower, ≤ 0.25
- YPRL — lower, ≤ 0.25
- RSDI — lower, ≤ 0.25
- HDDI — lower, ≤ 0.25
- DFGR — lower, ≤ 0.25
- DHEP — lower, ≤ 0.25
- MKIR — lower, ≤ 0.25
- YARF — lower, ≤ 0.25
- IWAK — lower, ≤ 0.25
- YSET — lower, ≤ 0.25
- YFSW — lower, ≤ 0.25
- EKAG — lower, ≤ 0.25
- HNYV — lower, ≤ 0.25
- PAVP — lower, ≤ 0.25
- KKFR — lower, ≤ 0.25
- ERIF — lower, ≤ 0.25
- LGMR — lower, ≤ 0.25
- DSRN — lower, ≤ 0.25
- SSSW — lower, 0.264
- EDSI — lower, ≤ 0.25
- EQRP — lower, ≤ 0.25
- KNIF — lower, ≤ 0.25
- PVQF — lower, ≤ 0.25
- THYG — lower, ≤ 0.25
